Results: PubChem BioAssay AID686979 (National Center for Advancing Translational Sciences (NCATS), 2013)
The whole screen tested about 420,000 compounds, of which about 50,000 (12%) were called active. The shares of active, inactive and inconclusive entries below differ from those in the screen. Calls come from the whole dose curve; as a rule, active = well fitted inhibition curve with a large enough effect; inconclusive = small, poorly fitted or top-dose-only effect; inactive = flat fitted curve, though single readings scatter. Potencies of inconclusive entries are left out as doubtful fits.
% is set by controls: 0 for no effect and ±100 for the full control effect; potency is the fitted concentration of half-maximal effect; tags give direction and shape of the fitted curve.

Assay: qHTS for Inhibitors of human tyrosyl-DNA phosphodiesterase 1 (TDP1): qHTS in cells in presence of CPT; note: nearly all actives have a fitted effect of over 55% in size
Conditions: chicken DT40 Tdp1-/-;hTDP1 cells + 20 nM CPT, ATP luminescence, 48 h; activity change, negative = growth inhibition: at 46.2 µM (top of the series) unless noted
Procedure, shortened: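 Cell growth measured by CellTiter-Glo luminescence after a minimum 48 h, 37 C compound exposure with 20 nM CPT in Tdp1-knockout DT40 cells stably expressing hTDP1, seeded 400/well; qHTS titration format.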
With S=C1CN=C(c2ccccc2)c2cc(Cl)ccc2N1 the Potency was inconclusive [inhibitor, single point]. With CC(C)C(=O)Nc1ccc(C(=O)NCc2cccnc2)cc1 the Potency was inconclusive [inhibitor, partial curve]. In the case of CN1CCN(/N=C/c2c[nH]c3ccccc23)CC1, the Potency is reported as “inactive”. For CC(C)CCP(=O)(O)c1ccccc1, the Potency was “inactive”. For COc1ccc(-c2ccc3c(c2)CN(C(=S)NCCc2ccccc2)Cc2cnnn2-3)cc1, the Potency was inconclusive [inhibitor, single point]. With COP(=O)(OC)C1(O)C(=O)Nc2ccc(Br)cc21 (stereo not given) the Potency was active: 16.4 µM. In the case of COc1cccc(NP(=O)(Oc2ccccc2Cl)Oc2ccccc2Cl)c1, the Potency is reported as inconclusive [inhibitor, single point]. For Nc1c(C(=O)Nc2ccc(Cl)c(C(F)(F)F)c2)sc2nc3c(cc12)N1CCC3CC1, the Potency was active: 13 µM. With COc1cccc(-n2c(/C=C/c3ccccc3O)nc3ccccc3c2=O)c1 the Potency was inconclusive [inhibitor, single point]. In the case of COC(=O)CCC(=O)Nc1sc(Cc2ccccc2)c(C)c1C(N)=O, the Potency is reported as active: 11.6 µM. With O=C(Cn1c(=O)n(CC2CS2)c2ccccc21)N1CCCCC1 (stereo not given) the Potency was inconclusive [inhibitor, single point]. With C[C@]12CCC3[C@@H](CCC4=CC(=O)CC[C@@]43C=O)C1CCC2=O (stereo not given in full) the Potency was “inactive”. In the case of CS(=O)(=O)c1ccc(C2=C(CNC(=O)c3ccc([N+](=O)[O-])cc3)[C@H]3CC[C@@H](C2)N3CCOc2ccccc2)cc1, the Potency is reported as inconclusive [inhibitor, single point]. In the case of O=C(Nc1cc(Cl)cc(Cl)c1)N1Cc2ccccc2-n2nncc2C1, the Potency is reported as inconclusive [inhibitor, single point]. For CNC(=O)Oc1cccc2c1OC(C)(C)C2, the Potency was “inactive”. For Cc1nc2cc(C(F)(F)F)ccc2n1C1CCN(Cc2nnnn2Cc2cccs2)CC1, the Potency was active: 16.4 µM. In the case of S=C1CN=C(c2ccccc2Cl)c2cc(Cl)ccc2N1, the Potency is reported as “inactive”. With Cc1ccc(-c2cc(-c3ccccc3)cc(-c3ccccc3)[n+]2-c2ccccc2)cc1 the Potency was active: 1.64 µM. With CCCCCn1c(=O)c(C(=O)Nc2ccccn2)c(O)c2ccccc21 the Potency was active: 3.66 µM. For C[N+](C)(C)CC1CCCc2ccccc2C1=O (stereo not given), the Potency was active: 2.91 µM. With NC(=S)c1cn(C2OC(CO)C(O)C2O)c2ncnc(N)c12 (stereo not given) the Potency was active: 0.13 µM. In the case of O=C(NN=Cc1ccc(N(CCCl)CCCl)cc1Cl)c1cccnc1, the Potency is reported as inconclusive [inhibitor, partial curve]. With CC(C)(C)C(=O)c1cn(CC(=O)NCc2ccco2)c2ccccc12 the Potency was inconclusive [inhibitor, single point]. For CN1CC[C@]23c4c5ccc(O)c4O[C@H]2[C@@H](O)CC[C@H]3[C@H]1C5, the Potency was “inactive”. With CS(=O)(=O)c1ccc(C(=O)N2CCC(C(=O)O)(c3ccccc3)CC2)cc1 the Potency was “inactive”. With Clc1cccc(Cl)c1CN1CCN(c2ccccc2)CC1 the activity change, negative = growth inhibition was inconclusive: -33.3% [inhibitor]. In the case of CCOC(=O)C(=O)NC1CCSC1=O (stereo not given), the Potency is reported as “inactive”. With C=C1C(=O)OC2C1CCC(C)C1(O)C=CC(=O)C21C (stereo not given) the Potency was active: 2.59 µM. In the case of C[C@H]1COC2=C1C(=O)C(=O)c1c2ccc2c1CCCC2(C)C, the Potency is reported as active: 5.17 µM. For COc1cc([C@@H]2c3cc4c(cc3[C@@H](O)[C@H]3COC(=O)[C@H]23)OCO4)cc(OC)c1O, the Potency was active: 0.1 µM. For Cc1c2cnn(CC(=O)N3CCC4(CC3)OCCO4)c(=O)c2c(C)n1Cc1cccc(Cl)c1, the Potency was inconclusive [inhibitor, single point]. With OC12CCCCC1C(c1ccccc1)NCC2 (stereo not given) the Potency was “inactive”. For COC(=O)C1=C(N)Oc2cc(C)oc(=O)c2C12C(=O)Nc1ccccc12 (stereo not given), the Potency was inconclusive [inhibitor, single point]. With COc1cccc(CN(C)C(=O)c2cccc(S(=O)(=O)N3CCN(c4ccccc4)CC3)c2)c1 the Potency was active: 11.6 µM. In the case of Cc1ccc(NC(=O)C2C3CCCC2C3c2ccccc2)c(C)c1 (stereo not given), the Potency is reported as inconclusive [inhibitor, single point]. With COC(=O)C12CCc3c(ccc4cc(OC)ccc34)C1=CC(=O)C2 (stereo not given) the Potency was “inactive”. In the case of O=C(CCC1CCCN(Cc2cccc3c2OCO3)C1)NCc1ccc(F)c(F)c1 (stereo not given), the Potency is reported as inconclusive [inhibitor, single point]. For Cc1ccc(CN2C(=O)c3ccccc3Sc3ccc(C(=O)N4CCC5(CC4)OCCO5)cc32)cc1, the Potency was inconclusive [inhibitor, single point]. With Oc1ccc2c3c1O[C@H]1[C@@H](O)CC[C@@]4(O)C(C2)N(CC2CCC2)CCC314 (stereo not given in full) the Potency was “inactive”. With O=c1c2ccccc2nc2n1CCS2(=O)=O the Potency was active: 2.91 µM. With COc1ccc(-c2nc(CSCC(=O)N3CCC4(CC3)OCCO4)c(C)o2)cc1OC the Potency was “inactive”. For CCN(Cc1ccc(Cl)nc1)/C(=C/[N+](=O)[O-])NC, the Potency was “inactive”. With CCCC(C)(COC(N)=O)COC(=O)NC(C)C (stereo not given) the Potency was “inactive”. With CN(C)S(=O)(=O)c1ccc(C(=O)NCCSc2c(-c3ccccc3)[nH]c3ccccc23)cc1 the Potency was active: 6.51 µM. With COc1cccc(-c2nc3cc4c(cc3cc2CN(C(=O)c2cccs2)C2CC2)CCC4)c1OC the Potency was inconclusive [inhibitor, single point]. For Cn1cc(C(=O)NCc2ccccc2)c2ccccc21, the Potency was inconclusive [inhibitor, single point]. In the case of COc1cc(CN2CC=C(c3ccc(F)cc3)CC2)cc(OC)c1, the Potency is reported as inconclusive [inhibitor, single point]. For N#CCC(=O)NN1Cc2ccccc2C1=N, the Potency was “inactive”. For Cc1ccc(NC(=O)CN2C(=O)CN=C(c3ccccc3)c3ccccc32)cc1, the Potency was inconclusive [inhibitor, single point]. With CC(OC(=O)COc1ccc(Nc2ccccc2)cc1)C(=O)N(C)c1ccccc1 (stereo not given) the Potency was inconclusive [inhibitor, single point].
